This is one part of the list.
T1: UNK ZnF1-3 (human, UniProt Q9C0B0 31-174)
T1 sequence: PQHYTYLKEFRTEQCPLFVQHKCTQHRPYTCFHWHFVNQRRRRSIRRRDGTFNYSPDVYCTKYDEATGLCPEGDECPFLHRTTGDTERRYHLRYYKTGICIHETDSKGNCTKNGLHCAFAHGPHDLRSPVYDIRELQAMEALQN

B1: chr16:94690093:94690094:+_ENSMUSG00000040785_ENSMUST00000117648|mus_hu|mus_mus_mus_hu_True|38_108 (ssRNA)
RNA: GGGAGUUCUACAGUCCGACGAUCGGGGACUCCUGUGGGACACACAGCCUCGAUUCCAGGGGGAAAAAGUCUUAGUCGAUACUAAUUAAAAAGUGUUUUUAUAAUUGGAAAAUCAGAUUACAUCUAUAAAAGAUGAAAAGCAAACAACAGAGGAUUGAGCAUCA
B2: chr3:179287964:179287965:+_ENSG00000136518_ENST00000429709|hu_hu|hu_hu_hu_mus_True|68_78 (ssRNA)
RNA: GGGAGUUCUACAGUCCGACGAUCCUUGAGUGGUGAGAUGGCCUCCAUGUUCUCCCUCGGAACACGCAGAGCAUUAGUGUCUAUGUAGUAGGUGGGCCCGCCCUGCUUGCCUUUGUCACCAUCAAUCUCCAUCAUUGUACUUCCCAACAGAGGAUUGAGCAUCA
B3: chr2:74714571:74714572:+_ENSMUSG00000027099_ENSMUST00000028511|mus_hu|motif|central (ssRNA)
RNA: GGGAGUUCUACAGUCCGACGAUCCACCAAUAUCUAAUGUAACAUUCAAGUAAAACAUAUUUCAAAAGUUAAGACUCCUGAGACGGACACAUAACUCUAUGACAGCCUGCCUUUACCACGAUCUUCAAAAUAGUGCUGUUCAAUCAACAGAGGAUUGAGCAUCA
B4: chr7:141441981:141441982:+_ENSG00000106028_ENST00000265304|hu_mus|hu_hu_hu_mus_False|1_88 (ssRNA)
RNA: GGGAGUUCUACAGUCCGACGAUCCUCAUGUCUUACAAACUGACGAAGUACCUGUAACACAGGUCUUCGAAACAUGGCUUCUGUUUUUCUUACAACCUAAUCUUUAGGCUUUUCCUAAAGGAAAGAAAGAAAAGAGAAGCCCAGCAACAGAGGAUUGAGCAUCA
B5: chr2:27445747:27445748:+_ENSG00000084774_ENST00000264705|hu_hu|motif|central (ssRNA)
RNA: GGGAGUUCUACAGUCCGACGAUCGGAGGCAGGGUCACCAGGCCCAUUACUUAAGAAGAGACCCUCAUACUCUUGGCUGUCGGGUGCAUGGUCCCAGGGUACCACAGUGACCUCAGCCCCACGCUGGCAGAGGCAUCGGAUCUGCAACAGAGGAUUGAGCAUCA
B6: chr17:55758012:55758013:+_ENSG00000153944_ENST00000284073|hu_hu|FALSE|FALSE (ssRNA)
RNA: GGGAGUUCUACAGUCCGACGAUCUGUUUUUAAAAAACAUCUUGGGAAAAGCAGUUUUUCAUAUUUUAAAUAAAAAUCUAACUAGACGGUAACAUUUGAAGCUGUGCACAGACAAGAGGUUAAUAGGCUGGUACAACACUAAUACAACAGAGGAUUGAGCAUCA
B7: chr1:182352875:182352876:-_ENSG00000135821_ENST00000339526|hu_hu|FALSE|FALSE (ssRNA)
RNA: GGGAGUUCUACAGUCCGACGAUCCAUAAUCCACAAAACCAUACAUAUAGUUUUUUGUCUUUACAUUUAAAUAUAAAAAUACUAUUCUGCUUUGUGUGAUAAAUCAAGGACCAAGCAGUAAGAACCUUUUCUUCUUUCAAGGUACAACAGAGGAUUGAGCAUCA
B8: chr17:65740002:65740003:+_ENSG00000130935_ENST00000581375|hu_mus|FALSE|FALSE (ssRNA)
RNA: GGGAGUUCUACAGUCCGACGAUCAACAAAUCUUUCUUCCCUGGACGAACAGGAAGAUUCAUAUUAAAAAAAAUAUAUAUCCAUCAAGUUAGGUGUGGUGGCCACACCUUUACUCCCAGCACUUUGGGAGGUGGAUCUCUGAGUCAACAGAGGAUUGAGCAUCA
B9: chr17:26420301:26420302:+_ENSMUSG00000024188_ENSMUST00000114976|mus_mus|FALSE|FALSE (ssRNA)
RNA: GGGAGUUCUACAGUCCGACGAUCAGUGUGCCUUGAGUCCUGAAAUCCAAGUCUGCCCAGACAAGACUGUCUUUCCAGAAAAGGUUCAAAAACCGACAAAAAACUUUUGCCACAACAUCCUUGUAAAACUCACCCUCCACAAGACAACAGAGGAUUGAGCAUCA
B10: chr4:140556289:140556290:+_ENSMUSG00000036622_ENSMUST00000037055|mus_mus|mus_mus_mus_hu_False|28_88 (ssRNA)
RNA: GGGAGUUCUACAGUCCGACGAUCGAUGGAGCUCACCAGGCCCCCUUUGGCUGUGCAGAACCCUGUGCGGGUCACCACUGCCAGGACGUGCGGUCCCACAUAGGCCCGGGCCUGCAGGAUGAGGGUCCCGCAGAAGAGUGUGUGCAACAGAGGAUUGAGCAUCA
B11: chr6:67234166:67234167:+_ENSMUSG00000036371_ENSMUST00000042990|mus_hu|motif|central (ssRNA)
RNA: GGGAGUUCUACAGUCCGACGAUCUGAAGAAUGCAUAAUCUCUGAAAAUUAUGAAAACAUCCCUGCUACCAAUACAUUUCGGAAUACAAAACUGACUACCAUAUUUGUUACUUCUGUGUAGCGGGAGAAGUUCAUUUUUAAAACCAACAGAGGAUUGAGCAUCA
B12: chr17:90989275:90989276:-_ENSMUSG00000024109_ENSMUST00000160844|mus_mus|FALSE|FALSE (ssRNA)
RNA: GGGAGUUCUACAGUCCGACGAUCAGAUGUUGUCUUGAAUUGGAAAAAUAGAUGCAUAGAGGUGUAGGCUUGCAAUGUAGCUAAGGCAACAUAGCUCGAUUUGGUCUUGAAGGUGACAGGAUCUGCGAUGAUGUUCCUGAAUCCCAACAGAGGAUUGAGCAUCA
B13: chr17:7482246:7482247:+_ENSG00000161960_ENST00000293831|hu_hu|motif|central (ssRNA)
RNA: GGGAGUUCUACAGUCCGACGAUCAGUUUCCAAGUCAUUUUAUUCAGAAUUUUGUGUUUGUUUCCUGAAUCAAUAAAUACGGUACAAAACAAUGUAAAAAUGGCUACCAUUUUCUCUCCCCUGCUUCCCCCCACCUGGGGACAACAACAGAGGAUUGAGCAUCA
B14: chr7:30889366:30889367:+_ENSMUSG00000049421_ENSMUST00000108200|mus_mus|motif|central (ssRNA)
RNA: GGGAGUUCUACAGUCCGACGAUCUGUCUGUGCCCAGGGGAAAUAAUUGUUUUCUAGGUUUCCUGAAUUUGUUUUUUAGUCGGUCUCUCUACAGAAAGCUGAGACUUAACUCACACGUCUUUCAUCCUGUGUCCUUAUCUGUGUCAACAGAGGAUUGAGCAUCA
B15: 133292388_133292508_1102_3pUTR_ENSG00000113583_ENST00000231512|human|control|control (ssRNA)
RNA: GGGAGUUCUACAGUCCGACGAUCAAAUUAUAUACUCGUUUGUGACAUUUAAUUUCCAAAGCACCAAGGCAAAAGAGAGACUCACCUCUCAUUUAAGUACCAAUUGCCUAUGGCAAACAUUUGCACAAUAUCAUAUAAAAAGUCCAACAGAGGAUUGAGCAUCA
B16: chr10:33190432:33190433:-_ENSG00000150093_ENST00000302278|hu_mus|hu_hu_hu_mus_True|68_108 (ssRNA)
RNA: GGGAGUUCUACAGUCCGACGAUCUACAUUUUCAAAACCUGCAUGUGAAUAAAACCCUGGCCACAGAGCCCUAAAGCUACCCUACUGUGACUAAGAUGCUGCUGCUGUGAGCUUGGUGUUGCAAAAUCCGCCUGAGUAGGAUUCCAACAGAGGAUUGAGCAUCA
B17: chr4:120981101:120981102:-_ENSG00000164109_ENST00000333047|hu_mus|FALSE|FALSE (ssRNA)
RNA: GGGAGUUCUACAGUCCGACGAUCAAUCUGUUGAUUCCCCUUAACAAUGUGCAGCACUCUUGUCGACUCAGACAAGUCCAGGAAGAACCCAAGAAAUGGAACAAUAACACACAUUUAUCAAUGUCGGAUCUUAGCUUUCUUCACCAACAGAGGAUUGAGCAUCA
B18: chr14:59854306:59854307:+_ENSMUSG00000035469_ENSMUST00000043227|mus_mus|FALSE|FALSE (ssRNA)
RNA: GGGAGUUCUACAGUCCGACGAUCUAAGAAAUGGACUCACAAGAAGCAAAUAUCCUUCAUAUAUUCCUACAGAGCACUGUCUAUGGUGUGGGGCUUUACCUGCAGAUCACCGCACCCACAGUGCCCCAGAGCUCUCACACCUAGCAACAGAGGAUUGAGCAUCA
B19: chr17:65740002:65740003:+_ENSG00000130935_ENST00000581375|hu_hu|hu_hu_hu_mus_False|38_108 (ssRNA)
RNA: GGGAGUUCUACAGUCCGACGAUCAACCCGUUCUUGCUCCCUGGACGAACAGGAAGAUUCAUAUUAAAAAAAAUAUAUAUCCAUCAAGUUAGGUGUGUAAUAUCAGACUUUACUCCCAGCACUUUGGGAGGUGGAUCUCUGAGUCAACAGAGGAUUGAGCAUCA
B20: chr14:57741442:57741443:+_ENSG00000053770_ENST00000261558|hu_mus|motif|central (ssRNA)
RNA: GGGAGUUCUACAGUCCGACGAUCAACUUUCCAGGCUGGCUGUUUUUGCGGCUGAGUCACAGAUACGGAAUUAAUGCGGUUCAGUGAAUUCUGCAAGUUAGCAUCCAAUAAAGUACCCAAAGGACAAGCCUGUAGAAGCAAGUCCAACAGAGGAUUGAGCAUCA
B21: chr9:14812383:14812384:-_ENSMUSG00000031934_ENSMUST00000164273|mus_mus|mus_mus_mus_hu_True|48_108 (ssRNA)
RNA: GGGAGUUCUACAGUCCGACGAUCAUAGCUCAAGUAGAUACACGCUAACAGUAUAAUGAUGAGUGUCAGCAGGCGGCAGCUAAUGUAUUUCAUGAUUAAAUUAUUAGAAUUUUUCUUUGUCUUCAAGUACUGCUCCACAAUUGGCAACAGAGGAUUGAGCAUCA
B22: chr7:17500836:17500837:-_ENSMUSG00000019370_ENSMUST00000019514|mus_hu|FALSE|FALSE (ssRNA)
RNA: GGGAGUUCUACAGUCCGACGAUCAUAUAUUUUUCUUCACAGCUUGAACUGAACACAAUAUUGCCCGGUUUAAAAAAAACAAAACCAAAACAUUCCGAAAAUGUCCACAGCCUCACGCCUACCUGCCCUUACCCUCAGCUCUUGCAACAGAGGAUUGAGCAUCA

These binders were tested against T1, UNK ZnF1-3 (assay: nsRBNS (natural sequence RNA bind-n-seq); RBNS binding buffer (assumed for nsRBNS): 25 mM Tris pH 7.5, 150 mM KCl, 3 mM MgCl2, 0.01% Triton X-100, 500 ug/ml BSA, 20 U/ml SUPERase-In, 4 C; UNK is unkempt and MSI1 is Musashi-1; names of the RNAs are library labels; protein concentration not given here; high values mean tight binding).

Binder | binding signal [enrichment R]
B1 | 1.84
B2 | 0.601
B3 | 1.87
B4 | 0.392
B5 | 0.873
B6 | 1.91
B7 | 0.657
B8 | 0.947
B9 | 1.53
B10 | 1.22
B11 | 1
B12 | 1.01
B13 | 2.28
B14 | 0.571
B15 | 0.935
B16 | 1.07
B17 | 1.38
B18 | 0.698
B19 | 1.09
B20 | 1.05
B21 | 2.32
B22 | 1.55

Source: paper PMC12136788
